Experimental findings from PubChem BioAssay AID1508642 (National Center for Advancing Translational Sciences (NCATS), 2021) are described below.

Screen size: about 43,000 compounds; about 200 (0.47%) were called active. About 12% were inconclusive and are not listed. Calls come from the whole dose curve; as a rule, active = well fitted cell-killing curve with a large enough effect; inconclusive = small, poorly fitted or top-dose-only effect, or effect the other way; inactive = flat fitted curve, though single readings scatter. The list shows a part of the results.
% is set by controls: 0 for no effect and ±100 for the full control effect.

The test in a line: Cell viability qHTS assay in S16 Pmp22-F2sN cells. Note: nearly all actives have a fitted effect of over 65% in size. The conditions noted are these: S16 Pmp22-F2sN Schwann cells (luciferase reporters placed in the Pmp22 gene) viability, CellTiter-Glo, 24 h; series mostly up to 57.5 µM; activity change, negative = cytotoxicity: at the top concentration. An outline of the steps: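 Luminescence from CellTiter-Glo, read by CCD camera after a 15 min room-temperature incubation, served as the viability signal. Reporter Schwann cells (S16 Pmp22-F2sN) had been treated with pin-transferred compounds for 24 h at 37C.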
On the technique in general: qHTS replaces the single test concentration by a dilution series.
On to `CCc1ccc(-c2nc(CN3CCCC(C(=O)NCc4ccc(C)cc4)C3)c(C)o2)cc1` (stereo not drawn), for which the “activity change, negative = cytotoxicity” value is inactive: 4.56%.
The value for `COc1ccc(-c2cc3nc(C)c(CCC(=O)Nc4cccc(C(F)(F)F)c4)c(C)n3n2)c(OC)c1` was inactive: 5.46%.
Consider `CCCCCOc1ccc(NC(=O)Cc2csc(C)n2)cc1`, for which the “activity change, negative = cytotoxicity” value was inactive: -1.82%.
Under `Cc1ccc(C(=O)Nc2ccccc2C(=O)O)cc1S(=O)(=O)N1CCCCCC1` stands inactive: 8.39%; under `O=C(Nc1sc2c(c1C(=O)Nc1ccc(Cl)cc1)CCCC2)c1cccs1`, inactive: 0.162%.
With `Cc1nnc(SCc2ccccc2Cl)c2cc3sccc3n12`, the “activity change, negative = cytotoxicity” value is inactive: 1.23%.
In the case of `CN(C(=O)Cn1cc(S(=O)(=O)N2CCN(c3ccccc3F)CC2)c2ccccc2c1=O)c1ccc(Cl)cc1`, the “activity change, negative = cytotoxicity” value was inactive: -10.5%.
The value for `COCC(C)NC(=O)c1cnn2c(C(F)F)cc(-c3ccccc3)nc12` (stereo not drawn) was inactive: 14.3%; that for `Cc1cc(C)c(NC(=O)CN2c3ccccc3S(=O)(=O)c3ccccc32)c(C)c1` was inactive: -0.661%; that for `COc1cc(-c2cc(OC)c3c(C)oc(C)c3c(=O)c2)ccc1OC(=O)c1ccccc1F` was inactive: 0.909%.
The value for `COc1ccccc1C(=O)NC1=NC(c2ccc(Br)cc2)CC(=O)N1` (stereo not drawn) was inactive: -3.08%.
`CCOC(=O)c1c(NC(C)=O)c2c3c(sc2n1Cc1nc(-c2cccc(C)c2)oc1C)CCCC3`: the “activity change, negative = cytotoxicity” value is inactive: 20%.
The value for `O=[N+]([O-])c1cc(-c2nc(-c3ccccc3)no2)ccc1NC1CCCC1` was inactive: 0.809%.
Under `COc1ccc(CN2C(=O)N(c3ccc(C)cc3)C(=O)C2CC(=O)Nc2ccccc2)cc1OC` (stereo not drawn) stands inactive: -0.204%; under `Cc1ccc(-n2c(-c3ccco3)nc3c(cnn3-c3ccccc3C)c2=O)cc1`, inactive: 22.5%; under `COC(=O)c1cc(NS(=O)(=O)c2cc(Br)cc3c2N(C(C)=O)CC3)cc(C(=O)OC)c1`, inactive: 0.104%.
Under `COCCn1c(=N)c(C(=O)NCc2ccco2)cc2c(=O)n3cc(C)ccc3nc21` stands inactive: 25%.
For `Cc1ccc2nc(NCCc3ccccc3)c3nncn3c2c1`, the “activity change, negative = cytotoxicity” value was inactive: 8.94%.
For `Cc1nn(-c2ccccc2)c(OC(=O)C(C)(C)C)c1Sc1ccccc1`, the “activity change, negative = cytotoxicity” value is inactive: 0.233%.
For `CCn1c(=O)cc(OCC(=O)Nc2ccc(C)c(F)c2)c2ccccc21`, the “activity change, negative = cytotoxicity” value was inactive: 17.7%.
With `COc1ccc(-c2cn3c(n2)sc2cc(C(=O)Nc4cc(OC)cc(OC)c4)ccc23)cc1`, the “activity change, negative = cytotoxicity” value was inactive: -1.97%.
Regarding `CCc1ccc(-n2c(=O)c3cccnc3n2CC(=O)Nc2ccccc2C(F)(F)F)cc1`, the “activity change, negative = cytotoxicity” value is inactive: -1.09%.
The value for `N#Cc1c(NC(=O)CS(=O)(=O)c2ccc(Cl)cc2)sc2c1CCCCC2` was inactive: 3.12%; that for `COc1ccc(-c2ccc(CCC(=O)O)n2CC(=O)Nc2cccc(C(F)(F)F)c2)cc1` was inactive: 0.648%.
Under `Cc1cccc(-n2c(=O)c3c(c4cc(C)ccc4n3C)n(CC(=O)Nc3ccc(C)cc3C)c2=O)c1` stands inactive: -11.8%; under `Cc1ccc(C(=O)Nc2ccc3oc(-c4ccncc4)nc3c2)c(Cl)c1`, inactive: 6.24%; under `CC(C)Cn1cc(NC(=O)NCc2ccccc2Cl)c2ccccc2c1=O`, inactive: -4.6%.
Under `CC(NC(=O)C1CCN(S(=O)(=O)c2ccc3nc4c(c(C(=O)O)c3c2)CCCC4)CC1)c1ccccc1` (stereo not drawn) stands inactive: -0.161%.
On to `Cc1ccc(NC(=O)CCS(=O)(=O)c2cc(Br)cc3c2N(C(=O)C2CC2)CC3)cc1`, for which the “activity change, negative = cytotoxicity” value was inactive: 4.56%.
Turning to `COc1cccc(NC(=O)c2ccc3nc(Cc4ccccc4)oc3c2)c1`, the “activity change, negative = cytotoxicity” value is inactive: -8.85%.
Under `Cn1c(=O)c2nc(SCC(=O)Nc3ccc(Cl)c(Cl)c3)n(C)c2n(C)c1=O` stands inactive: 1.55%; under `Cc1ccc(CN(Cc2ccco2)c2cnc(S(C)(=O)=O)nc2C(=O)Nc2ccccc2Br)o1`, inactive: 2.79%.
For the compound `COc1ccc(CNC(=O)Cn2nc(C)c3c(C)n(-c4ccccc4)nc3c2=O)cc1OC`, the “activity change, negative = cytotoxicity” value is inactive: 17.7%.
The value for `CCCCc1ccc(NC(=O)C2(C)Cc3ccccc3C(=O)O2)cc1` (stereo not drawn) was inactive: 17.7%; that for `CCc1ccc(C2CC(=O)Oc3c2c(=O)n(C)c2ccccc32)cc1` (stereo not drawn) was inactive: 1.45%.
The value for `Cc1cccc(-c2nc(C(N)=O)c3c(n2)n(-c2ccc4c(c2)OCO4)c(=O)n3C)c1` was inactive: 13.8%.
The value for `COc1ccc(N(C)C(=O)c2cc(S(=O)(=O)N3CCc4ccccc43)cn2C)c(OC)c1` was inactive: 1.19%; that for `O=C(Nc1ccc(Cl)cc1)c1cc2c(-c3ccccc3)nn(-c3ccccc3)c2s1` was inactive: -0.64%.
With `Cc1nn(CC(=O)N2CCCCC2)c(=O)c2cc3occc3n12`, the “activity change, negative = cytotoxicity” value was inactive: 7.39%.
Under `CCOC(=O)CSc1nc2ccc(NC(=O)COc3ccccc3C)cc2s1` stands inactive: 5.89%.
The value for `Cc1ccc(Cl)cc1NC(=O)CCS(=O)(=O)c1ccc2c(c1)n(C)c(=O)c(=O)n2C` was inactive: -3.15%; that for `Cc1ccc(-n2c3nc(=O)[nH]c(=O)c-3cc3c(C)nn(-c4ccccc4)c32)c(C)c1` was inactive: 11.8%; that for `Cc1ccc(NC(=O)c2c(NC(=O)c3ccccc3)sc3c2CCC3)cc1` was inactive: 0.451%.
On to `CC1CCc2c(sc(NC(=O)c3cc(-c4ccc(F)cc4)on3)c2C(N)=O)C1` (stereo not drawn), for which the “activity change, negative = cytotoxicity” value is inactive: 20.2%.
Under `Cc1ccc2sc(N(Cc3cccnc3)C(=O)C3COc4ccccc4O3)nc2c1C` (stereo not drawn) stands inactive: -21.9%; under `CC(C)Cn1c(=O)c2sccc2n2c(CCCC(=O)NC3CCCCC3)nnc12`, inactive: 18.1%.
Under `CCN(CC)CCNC(=O)c1ccc(-n2c(-c3ccccc3)cc3c2CCCC3)cc1` stands inactive: 23.3%; under `Cc1cc(C)cc(NC(=O)C2CCN(S(=O)(=O)c3cccc(-c4noc(C)n4)c3)CC2)c1`, inactive: -5.53%.
